The whole screen tested about 150,000 compounds, of which about 540 (0.36%) showed an effect of 50% or more. The list shows a part of the results.

For the assay, the system named is Plasmodium falciparum. The experiment in a line: Primary screen in NF54 nanoGlo assay, in single point, at 2uM, 72h; a lower Z score goes with more inhibition. The assay is classed as functional, Erythrocyte. The following applies: timepoint 72 hour.
On to `Cc1noc(C)c1CN[C@@H](C)c1cccc(N2CCCC2)c1`, for which the % Inhibition – broadly, the drop in the measured response relative to a control, in per cent – is -8% and the Z score is 1.16.

Take `CCN=C(NCCc1ccn(C(C)C)n1)NC1CC1C` (stereo unspecified): the “% Inhibition” value is listed as -2% and the Z score came to 0.21.

On to `CN(Cc1ccccc1)C(=O)CCC1CCN(C[C@H]2CCCOC2)CC1`, for which the “% Inhibition” value is listed as -2% and the Z score is recorded as 0.28.

Regarding `CCOC(=O)C1(CC)CC(C)(c2csc(N)n2)OC1=O` (stereo unspecified), the “% Inhibition” value is given as -10% and the Z score is recorded as 1.95.

Take `O=C(c1ccc(COc2ccc3ccccc3c2)o1)N1CCN(S(=O)(=O)c2ccccc2)CC1`: the “% Inhibition” value was -11% and the Z score came out at 1.35.

Take `COc1cc(OC)c(OC)cc1CNC(C)(C)C`: the “% Inhibition” value is on record as -12% and the Z score is recorded as 1.92.

On to `CC(=O)N(C)CCc1nc(-c2cc(C(=O)C(Cl)(Cl)Cl)n(C)c2)cs1`, for which the “% Inhibition” value is recorded as -3% and the Z score is 0.3.

As to `Cc1c(NC(=O)c2ccc(N3CCOCC3)c(F)c2)cnn1-c1ccccc1`, the “% Inhibition” value is on record as -15% and the Z score was determined as 1.5.

For the compound `Cc1ccc(NC(=O)Cn2nc3nc(N4CCOCC4)ccn3c2=O)cc1F`, the “% Inhibition” value is -9% and the Z score came to 1.

Turning to `CCC1(CC)C(NC2CCc3[nH]ncc3C2)CC1OC` (stereo unspecified), the “% Inhibition” value was -15% and the Z score came to 2.32.

With `COc1ccc(CCNc2nnc(-c3ccc(C)cc3)c(=O)[nH]2)cc1OC`, the “% Inhibition” value turned out to be 31% and the Z score is on record as -3.75.

Consider `O=C(CCc1ccco1)Nc1ccc(-c2cn3ccccc3n2)cc1`, for which the “% Inhibition” value is -17% and the Z score amounted to 3.22.

As for `CN(Cc1nc(-c2ccoc2)no1)C1C2CCOC2C1(C)C` (stereo unspecified), the “% Inhibition” value is recorded as -12% and the Z score is reported as 1.4.

For the compound `Cc1nn(C)c(Cl)c1C(=O)NCCc1ccc2c(c1)OCO2`, the “% Inhibition” value is given as -5% and the Z score is on record as 0.99.

`CC(C)[C@@H]1CC[C@H](C)C[C@H]1OC(=O)Cn1cc(-c2ccc(Cl)cc2)[n+]2c1CCC2`: the “% Inhibition” value is 79% and the Z score is reported as -6.99.

Regarding `CCN(C)c1nc(N2CCN(c3ccccc3)CC2)nc2c1CN(C(=O)c1cc(OC)cc(OC)c1)CC2`, the “% Inhibition” value is listed as -17% and the Z score is reported as 2.37.

As for `Oc1ccc(Cc2nc(C3CC3)n[nH]2)cc1F`, the “% Inhibition” value is on record as -8% and the Z score is on record as 0.84.

Take `Cc1cc(CN2C[C@H]3CC[C@@H](C2)N(Cc2c(C)noc2C)C3=O)ccc1F`: the “% Inhibition” value is -18% and the Z score is listed as 3.39.

Take `CN1CCC[C@@H]1CNC(=O)c1cc(F)c[nH]1`: the “% Inhibition” value was 4% and the Z score was -0.53.

As to `CCCS(=O)(=O)N1CC[C@@H](c2nc(C)no2)N(C(=O)c2ccccc2)CC1`, the “% Inhibition” value was -3% and the Z score is 0.35.

With `Cn1cc(Nc2nccs2)c(C2CC2)n1`, the “% Inhibition” value was -16% and the Z score came to 2.79.

Consider `O=C(CCN1CCc2ccccc2C(O)(c2ccccc2)C1)c1ccc2c(c1)OCCO2` (stereo unspecified), for which the “% Inhibition” value was -20% and the Z score is listed as 1.79.

Turning to `CN(CCCc1cnn(C)c1)S(=O)(=O)NCc1ccccc1`, the “% Inhibition” value is on record as -5% and the Z score worked out at 0.96.

These data come from ChEMBL document CHEMBL4888484, “Replenishing the malaria drug discovery pipeline: Screening and hit evaluation of the MMV Hit Generation Library 1 (HGL1) against asexual blood stage Plasmodium falciparum ,using a nano luciferase reporter read-out” (2022).
